Over roughly 33,000 sequences, “E-score (-0.5 to 0.5)” has its median near -0.011; the highest 2% begin near 0.28. This is one part of the list.
These sequences were tested against T1, Gcr1 (UniProt P07261) (assay: PBM E-score (8-mer binding enrichment) (E-score (-0.5 to 0.5)); higher = stronger / more preferred TF binding; most listed sequences are background and not binding sites). Settings: protein concentration: 100 nM; construct: GST-full length.
T1 sequence: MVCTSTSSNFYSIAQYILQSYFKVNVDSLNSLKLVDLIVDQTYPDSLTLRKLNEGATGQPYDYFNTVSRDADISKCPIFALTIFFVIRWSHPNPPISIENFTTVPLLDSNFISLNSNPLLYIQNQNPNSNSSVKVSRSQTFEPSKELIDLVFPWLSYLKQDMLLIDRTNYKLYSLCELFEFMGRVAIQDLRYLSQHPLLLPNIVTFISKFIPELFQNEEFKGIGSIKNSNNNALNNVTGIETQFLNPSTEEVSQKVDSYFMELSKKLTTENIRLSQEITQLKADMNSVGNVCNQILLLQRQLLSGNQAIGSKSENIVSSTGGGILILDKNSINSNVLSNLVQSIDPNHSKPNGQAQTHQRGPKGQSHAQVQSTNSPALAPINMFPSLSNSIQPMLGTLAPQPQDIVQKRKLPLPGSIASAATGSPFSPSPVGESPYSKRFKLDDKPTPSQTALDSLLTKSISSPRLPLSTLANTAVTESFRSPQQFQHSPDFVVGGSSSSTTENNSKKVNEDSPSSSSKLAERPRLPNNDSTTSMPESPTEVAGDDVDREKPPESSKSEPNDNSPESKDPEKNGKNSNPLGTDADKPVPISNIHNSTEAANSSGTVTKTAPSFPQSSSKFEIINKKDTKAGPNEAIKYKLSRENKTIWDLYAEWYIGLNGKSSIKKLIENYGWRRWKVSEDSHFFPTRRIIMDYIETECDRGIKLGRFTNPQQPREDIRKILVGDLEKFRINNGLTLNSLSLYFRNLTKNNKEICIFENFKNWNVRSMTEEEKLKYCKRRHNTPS
Summary of the method: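 Full-length yeast transcription factors or their DNA-binding domains, GST-tagged and expressed with PURExpress, were applied at about 100-200 nM to universal all-10-mer Agilent arrays. These arrays had been made double-stranded by primer extension on fresh or once-stripped slides. Detection used fluorescent anti-GST, normalisation used masliner, and E-scores for ungapped eight-base words pooled with reverse complements came from the Universal PBM Analysis Suite.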

Sequence | PBM E-score
CTGACTAA | 0.0519
CGGTAGCC | 0.296
AACCGTGC | -0.0592
ACATTCTA | -0.0517
CCAATAGA | 0.00833
CGATACCA | 0.168
GAGGCTGC | 0.253
CGAGCCCC | -0.152
GACTACCA | 0.106
CCGGGTAA | -0.015
AGCTGACT | 0.0156
CTGTAGTA | -0.0217
ACGACTCT | 0.109
CGATCACC | -0.00295
CTGCGAAA | 0.0313
GCAGATAC | 0.0819
CTGATATA | -0.0171
GTTCATCA | 0.108
AGCACTAG | -0.115
GATAGCCC | -0.0221
AACGTGCA | -0.107
CCGGCGTA | -0.139
CCTTCGAG | -0.338
GATTTTTA | -0.00889
CATCTGGA | 0.255

Sequence | PBM E-score
GTACCTAA | 0.0257
AACTCTGG | 0.0872
ACCCGCCC | -0.135
AATAATCC | 0.029
CGTAGCTA | -0.0233
CACATATG | -0.119
ACAATCCT | -0.0527
ATGTGTCA | -0.206
AACCCTGC | -0.221
GATTTATA | 0.0651
CGGGCTGC | 0.234
CTGGCTAC | 0.119
AGTTTCCA | 0.193
ACGTCTTG | 0.11
TATCCACA | 0.0115
CTATGGAC | 0.0979
ATTGCTGG | 0.0236
GATCTACC | -0.202
CCCCACAG | -0.0776
ACGTCGTG | -0.00249
AGAGGCTA | -0.062
GTAGGCAA | -0.224
AGCAATAG | 0.0355
GTTCCTCA | 0.0956
CGGCTTAA | 0.034

Sequence | PBM E-score
ACCGTGCG | -0.147
AACATACA | -0.0889
CAGTCATG | -0.145
CAATACTA | 0.111
CATTCTAC | -0.217
AAACGTTG | -0.00289
CCCGGGTA | -0.031
GACTCCTA | 0.229
AGCGTATG | -0.00269
AGCATCGC | 0.0417
AACGACTT | -0.126
CTTAGAAG | 0.143
ATAAGTCG | 0.126
AACCCTCC | -0.205
AGTGGCAA | 0.088
ATTTTTTG | 0.228
GCCCAAAA | 0.217
CTCCACAA | 0.0774
CCGAACGG | -0.208
GGGTAGGA | -0.0932
CTAAAGGA | 0.278
ATTGGTCC | -0.0749
CACCAAGA | 0.22
ATGGCGGA | -0.0187
GCGGATAC | 0.194

Sequence | PBM E-score
ATGTGCGA | -0.0959
CGTGCGCC | -0.107
CACGCTCA | -0.0546
AGGAGACT | -0.00509
AACGTTGG | -0.0681
AGCAAAGA | 0.0102
GGGGGTAC | -0.133
CGACTACA | -0.0338
AGCTATAG | -0.0832
GAGTACTA | -0.157
GAAATTTC | 0.223
AGGACCGC | -0.088
AACCAAGA | 0.119
AAGGGATA | -0.0519
CGACAACC | 0.087
GCAAGCGA | -0.0442
ATGGACTG | -0.107
CTGAAAGC | -0.2
AATTTCTC | 0.0817
TCCACCAA | 0.109
AAAGAGCT | 0.012
AGTTGAAT | -0.0577
CAGCTCGC | -0.117
GTCGTGGA | -0.217
CCTATATC | 0.111

Sequence | PBM E-score
AATTCCTC | 0.116
ACTTGAGC | -0.227
GATTTTAC | 0.0086
ACATGAGT | 0.0888
CTAATAGA | 0.0482
GCCGCGAA | -0.164
ATATAGTA | 0.0849
CATCCCCC | -0.257
CGTCCGAC | -0.0429
GACGAAGC | 0.237
GGAACGAC | -0.0685
TCTGCGCA | -0.127
CTCATAAG | 0.0247
AGAGGTAC | -0.0101
CGAAATAG | 0.131
CTCGAAGC | -0.0341
ACAAGACC | -0.0386
AAGTAGAA | 0.0726
ACCAGGAG | 0.0329
AAGCGCGA | -0.0142
GACATAGC | -0.0975
ATCGCACG | -0.145
GAGCGATC | -0.159
TCGGCAAA | 0.0668
CTTCCATC | -0.0566

Sequence | PBM E-score
ATCAGTTG | -0.0954
GATCTTGC | -0.202
CGACCAGA | -0.0313
CCGTGTAC | -0.0544
CAGTACTA | 0.043
ATAACCCC | -0.0804
ACTCTCCC | -0.115
AATAGACT | 0.0888
ACCAAGGA | 0.091
ATCGGGGC | -0.0113
GGCGAAGA | -0.161
CTGAATAA | 0.0588
TAATTATA | 0.255
AGACGGGG | -0.049
AGCCCCTC | 0.0713
CCCAAAAC | 0.179
CATTATGA | 0.0396
CACTAGTG | 0.173
GTCGTTAA | -0.0319
CAAGGATA | 0.0872
ACCACTTG | 0.241
CACGGTAG | -0.0214
CCCCTACG | -0.119
CCAGCTTC | 0.333
CGCACTAC | -0.0769

Sequence | PBM E-score
AGATTCGG | 0.134
AGCACATC | -0.0359
TGCACTAA | -0.18
CGGGGGAG | -0.203
ATCGCTTA | -0.0792
GACGGATA | -0.0581
AGTGGATA | 0.0533
TCCGATAA | 0.198
ACTATTGA | 0.122
GAGTATGA | -0.0782
CCCCCAGG | -0.153
GTGAAACA | 0.0915
GGTCCATA | -0.14
ATCCTGGA | 0.162
ATGATTTC | -0.142
ACTCTGAC | -0.0488
GGCCTAGA | -0.0343
AGGTAGTC | 0.072
AGCCAGAC | -0.0477
GCATTGAA | 0.00177
GTAGCGAC | 0.058
CGTAAAAC | 0.04
GTAGCCTA | -0.177
CGACATTA | 0.306
GCTAACGA | -0.0946

Sequence | PBM E-score
CATAAATG | 0.0345
AACTTACA | -0.0441
CATCTTTC | -0.179
ACACCCAT | 0.0313
GGCCAGGA | -0.105
CGTGTCCC | -0.00613
GACAGGAC | 0.0783
ACTCATCG | -0.236
AAGGCACG | -0.0994
AAGTAAGA | 0.0425
GGGGGATA | 0.00301
GCGCTACA | 0.108
AATGGCGT | 0.149
AAATTCCC | 0.0437
AAATGTCC | -0.189
AACCCACG | -0.0329
GTCGTGTA | 0.178
ATATAGAT | 0.147
GAGTGGAC | -0.0196
GCGATGAC | -0.0921
CCGTGATA | 0.0655
AAAATGTG | 0.13
TCACCCCA | -0.00691
AGTATGAC | -0.0345
AATATCCA | 0.0713

Sequence | PBM E-score
CACCCCAG | 0.0913
AATCCACA | 0.1
CCGTCAAC | -0.103
AGGTTGGG | -0.12
CATGTTAC | -0.0414
GTAGCAAA | -1e-05
CAGTTGCA | -0.0764
AAGCTAGA | 0.013
CGCACCTC | -0.00681
GGAAGATA | 0.0865
ACCCTCAC | -0.0906
AAACCAGG | 0.0486
ATAGCTGA | -0.0965
GATTTCCA | 0.113
CACGCAGG | -0.0117
AAGACATC | -0.273
CGACAGCC | -0.141
GTTAATGA | -0.103
ATCGGCAT | -0.0592

From the supplement of paper PMC3334620
